# Assay results taken from the BET-seq Pho4 binding data (Le et al. 2018).
# The other results are listed elsewhere or left out. The energies were worked out here from pooled read counts, against the library average; single values are noisy.
# Target: T1, Pho4 (S. cerevisiae) (UniProt P07270)
# T1 sequence: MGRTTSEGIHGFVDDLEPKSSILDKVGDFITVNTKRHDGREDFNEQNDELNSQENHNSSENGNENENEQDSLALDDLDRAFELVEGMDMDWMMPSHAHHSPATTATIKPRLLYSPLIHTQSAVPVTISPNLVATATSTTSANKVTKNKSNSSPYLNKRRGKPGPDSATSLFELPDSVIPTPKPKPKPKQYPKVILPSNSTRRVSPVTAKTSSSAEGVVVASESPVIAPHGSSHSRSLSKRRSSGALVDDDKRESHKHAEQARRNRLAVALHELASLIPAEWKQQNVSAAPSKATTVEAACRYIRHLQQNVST
# Assay: relative binding free energy (BET-seq); higher = weaker binding
# Details: reference: library average
row,Sequence,relative binding free energy [kcal/mol]
1,GGTGGCACGTGTCGTC,0
2,GTTTGCACGTGAGACT,0.14
3,TGAGCCACGTGCCGGG,-0.07
4,TTGTGCACGTGGGAAG,-0.18
5,ACTGTCACGTGGGTCT,0.01
6,TAGGTCACGTGGATGC,0.11
7,TAGGGCACGTGAGTGA,0.24
8,CAGAGCACGTGAAGGT,0.31
9,CTAAGCACGTGGAGTT,0
10,AATGACACGTGTAGGA,0.02
11,GTTGTCACGTGGCAGT,0.11
12,GGTTACACGTGCGCTG,0.09
13,GTGTCCACGTGAATGG,0.29
14,GGGGACACGTGGGCGC,-0.13
15,TATTTCACGTGCAGTA,0.2
16,ATGTCCACGTGTATGT,-0.02
17,GGAGACACGTGTGTCG,-0.01
18,CGTGGCACGTGTCTGT,-0.09
19,GTTAGCACGTGAGATA,0.4
20,GGTGGCACGTGTCTGC,0.03
21,ATTGCCACGTGGGGGT,-0.33
22,GGCCTCACGTGGCGGG,0.15
23,AATTTCACGTGGCTGT,0.12
24,ATGGGCACGTGATCGG,-0.04
25,AGTTACACGTGTGAAA,0.35
26,CTTTTCACGTGTGGGG,0.26

row,Sequence,relative binding free energy [kcal/mol]
1,TTTGACACGTGGTTCG,0.05
2,AGTGGCACGTGGATCA,0.04
3,TGTGACACGTGGGAGT,-0.04
4,CAGTGCACGTGCGTGT,-0.2
5,GGTGTCACGTGAGGAC,0.31
6,GTAGGCACGTGTAAGG,0.07
7,GGGGTCACGTGAAGGA,0.39
8,GGAAACACGTGTCGGT,0.22
9,ATTTACACGTGGGTCG,-0.17
10,ACGTGCACGTGTAGTA,-0.15
11,GCGTCCACGTGGGTTG,-0.16
12,AAAGACACGTGTGGTG,0.05
13,TTTTACACGTGGGCAT,-0.01
14,TTGAACACGTGTAGTG,0.15
15,ATTAACACGTGGGTTT,0.01
16,AAAATCACGTGTTTGG,0.16
17,GGGAGCACGTGGTCAG,-0.27
18,CGTGACACGTGGGTTG,-0.16
19,GAGGACACGTGTGTGG,0.14
20,GGAGTCACGTGTTTGC,0.04
21,AACAGCACGTGTGGGT,-0.04
22,AGGTACACGTGGTTCA,0.04
23,TAAAGCACGTGATTGG,0.09
24,TTTCTCACGTGACTGG,0.23
25,CTCGTCACGTGTTGTG,0.21
26,CGGATCACGTGAGGTT,0.49

row,Sequence,relative binding free energy [kcal/mol]
1,TGTTGCACGTGTGCTG,0.07
2,GTATGCACGTGTAGTT,0.21
3,GCATTCACGTGATTTG,0.45
4,GTTTACACGTGCATTG,0.3
5,GGAGTCACGTGGGTCG,-0.08
6,AATTGCACGTGGCGGA,0
7,TATTACACGTGGTTCG,0.12
8,TGAAGCACGTGGGGAA,-0.21
9,GTAAACACGTGTGATG,0.11
10,ATGAACACGTGAGGGG,0.33
11,TGACTCACGTGTGTGC,0.22
12,GCGAACACGTGTAGGG,0.03
13,TTTGCCACGTGTGAGT,0.07
14,TTTAGCACGTGGAGCG,0
15,AATTGCACGTGTGATT,0.15
16,GTTAGCACGTGTTGTT,0.01
17,CATAGCACGTGTTGTA,-0.1
18,TGTTTCACGTGGACGA,0.25
19,GTCTTCACGTGGTCTG,0.22
20,GGCGTCACGTGGCGGT,-0.09
21,TTCGGCACGTGGTATG,-0.04
22,GGTTTCACGTGGAGCA,0.38
23,AGTTGCACGTGCGATT,0.06
24,CGTTGCACGTGTAATG,0.04
25,TTTAGCACGTGCAAGG,-0.19
26,GCGGTCACGTGTGGAA,0.24

row,Sequence,relative binding free energy [kcal/mol]
1,GCTGGCACGTGAGTAT,0.16
2,TTGTGCACGTGGGACT,-0.14
3,GTGAACACGTGATGGT,0.22
4,AGTTACACGTGTTATC,0.16
5,GGGATCACGTGTGTTG,0.31
6,TAGATCACGTGTAAGG,0.2
7,TAAGACACGTGGTGAG,-0.08
8,AGTTACACGTGGTGAA,0.06
9,GTGCTCACGTGTGCTG,0.13
10,CTGTTCACGTGGTGTG,0.17
11,TGTAGCACGTGAAGAT,0.29
12,GGACGCACGTGGGTAA,-0.1
13,GATGTCACGTGACGTG,0.14
14,GATGACACGTGTTTGT,0.15
15,TTGCGCACGTGTATAG,0
16,CAATGCACGTGGGTGG,-0.13
17,ATAAGCACGTGGTTAT,-0.14
18,GTATACACGTGAGTAG,0.15
19,TTCGGCACGTGGAGGA,-0.26
20,ATGAACACGTGGATTT,0.03
21,TTATCCACGTGGGGTA,-0.19
22,CGGGGCACGTGAATGG,0.06
23,GCGTTCACGTGTGGAG,0.22
24,GGTTCCACGTGGGTTC,0.01
25,GTGGTCACGTGGCACG,-0.05
26,CGGATCACGTGTAGTG,0.11

row,Sequence,relative binding free energy [kcal/mol]
1,TCGTTCACGTGAAAGG,0.24
2,CGGTTCACGTGGAATT,0.47
3,TGGTTCACGTGTGACG,0.33
4,GATAGCACGTGTGGGG,0.03
5,CGGTGCACGTGTCAGT,-0.12
6,AGTGACACGTGGTGTT,-0.09
7,GATGTCACGTGGGGGA,-0.02
8,TCTTTCACGTGGTCGA,0.3
9,TGTGGCACGTGGATAG,-0.03
10,TGAATCACGTGCGGGG,0
11,ATAGCCACGTGGGGCG,-0.2
12,TGGGGCACGTGTAAAG,-0.04
13,TCTAGCACGTGAGTGT,0.17
14,TAACGCACGTGTAGGT,-0.1
15,GTGTACACGTGAATTG,0.36
16,ATAGGCACGTGGTTGG,-0.15
17,TTAGGCACGTGAGAGA,0.08
18,GTAGGCACGTGTGAGT,0.04
19,TGCAGCACGTGGTGCG,-0.24
20,CTCGGCACGTGTTTTG,-0.13
21,GGTGCCACGTGTGCGT,-0.16
22,TAAGACACGTGGATTT,0.26
23,TTTAACACGTGATGAG,0.26
24,GATGTCACGTGGGGCT,0.11
25,TGGAGCACGTGCGTGA,-0.1
26,GGGTACACGTGAGATA,0.23

row,Sequence,relative binding free energy [kcal/mol]
1,TTTTTCACGTGTCTGG,0.35
2,GGTGGCACGTGGTGTC,-0.06
3,ATCTTCACGTGATTAG,0.45
4,GTTGCCACGTGTGTTG,-0.06
5,GAGGTCACGTGCGCGG,0
6,AGTAGCACGTGGGATA,-0.24
7,GAAAACACGTGGAGGG,0.1
8,GATGGCACGTGGATAT,0.03
9,ATAGTCACGTGTGGAT,0.08
10,GGGTACACGTGAAGGA,0.45
11,TGGTGCACGTGGGCCT,-0.1
12,GGTGTCACGTGCTTTG,0.1
13,GTGATCACGTGAGTTA,0.25
14,GTGATCACGTGGTCTG,0.06
15,TCTTCCACGTGTTTTT,0.09
16,ACGGTCACGTGGTATA,-0.04
17,GTTCGCACGTGGTTTT,-0.03
18,TACTTCACGTGTGAAG,0.34
19,AAGATCACGTGGTATG,-0.03
20,GATCGCACGTGTGTGG,0.12
21,ATGCGCACGTGTCGGT,-0.21
22,TTTTGCACGTGTACTT,0.09
23,TAAATCACGTGGCGTG,0
24,TTGTGCACGTGTAGGT,0.02
25,TATCACACGTGTGGGG,0.12
26,TTCTACACGTGTGATG,0.32

row,Sequence,relative binding free energy [kcal/mol]
1,CCTTTCACGTGTGAGG,0.33
2,TTTTCCACGTGGAGAT,0.12
3,GTTGGCACGTGAGTTA,0.13
4,TGATGCACGTGTTTAC,0.03
5,GGGTTCACGTGACGCG,0.2
6,TTGAGCACGTGAATTA,0.34
7,GAAGGCACGTGGCGTT,-0.17
8,AGGCTCACGTGAGATG,0.34
9,CCAGGCACGTGGGGTT,-0.36
10,TAAAACACGTGGAGGT,0.05
11,GACTTCACGTGGGTTT,0.24
12,CAGTGCACGTGCAGGT,-0.14
13,AAATGCACGTGTAGGG,-0.03
14,AAGGTCACGTGGTTGT,0.11
15,GTTGCCACGTGTTTGA,0.04
16,TTTTTCACGTGACTCT,0.32
17,GGCGACACGTGGTTCG,0.07
18,TAAGGCACGTGTGAGT,-0.07
19,TCTGTCACGTGGAGGA,0.15
20,TATATCACGTGTAGGA,0.1
21,GTCGGCACGTGGAGCG,-0.04
22,CGGTACACGTGGATAG,0.2
23,GGGCGCACGTGTCGTG,-0.13
24,GATATCACGTGGTAGA,0.19
25,TTTTGCACGTGAATAG,0.27
26,CTGCACACGTGTGGTG,0.04

row,Sequence,relative binding free energy [kcal/mol]
1,CGAATCACGTGTAGTG,0.11
2,GAGGTCACGTGGGGTT,0.07
3,AGTATCACGTGAGGGT,0.35
4,TGCAGCACGTGTATGG,0
5,GGTAACACGTGGTAGT,0.02
6,GGCTACACGTGGGGGA,0.06
7,ATATCCACGTGGTTTG,0.06
8,CTAGGCACGTGTCGGG,-0.03
9,TTTGTCACGTGTAGAA,0.12
10,TATGCCACGTGTGTAT,-0.14
11,TTTAGCACGTGAAGGA,0.15
12,GGGTACACGTGGGACT,0.17
13,TCTAGCACGTGTGGTC,0.11
14,GTACACACGTGGTGGG,-0.1
15,GTGTACACGTGGGCAT,-0.14
16,TGGATCACGTGAATGG,0.4
17,CTATGCACGTGTAGTG,-0.01
18,TTGAGCACGTGAGGAA,0.01
19,CTTTACACGTGTCGGG,0.18
20,ATAAGCACGTGATTTG,0.07
21,AGGCTCACGTGAGATT,0.53
22,TCCATCACGTGGGTGT,0.06
23,GTGGGCACGTGGCATT,-0.15
24,GGGGTCACGTGGGAAT,0.2
25,GGGTCCACGTGATTTA,0.22
26,ACGGGCACGTGGAGCG,-0.23

row,Sequence,relative binding free energy [kcal/mol]
1,AGAGACACGTGGGTAT,-0.1
2,GGTGCCACGTGAGGAT,0.27
3,TCTTGCACGTGAGGTG,0.12
4,AGTCACACGTGTTGAA,0.18
5,AGAAGCACGTGGTATG,-0.25
6,GGAAGCACGTGTGGTA,-0.08
7,GTAGACACGTGAGTGT,0.09
8,AGCGACACGTGGGGCT,-0.09
9,AGTATCACGTGTTGAC,0.25
10,AGGGGCACGTGTCAGG,-0.12
11,TGAGGCACGTGCGTAT,-0.16
12,TGAAACACGTGGGGTG,-0.02
13,GTTTGCACGTGAGTGG,0.18
14,TCTTGCACGTGGAGGA,-0.05
15,GAAGGCACGTGCAGGT,-0.05
16,GCTGGCACGTGCGGGT,-0.1
17,GTTATCACGTGGGTCC,0.02
18,AGTTGCACGTGCTATT,-0.04
19,CAGGTCACGTGTAGTT,0.19
20,GATGGCACGTGGAATG,0.04
21,GCGTGCACGTGGCATG,-0.1
22,GTGTCCACGTGTGGGG,0.18
